Reference: the supplement of paper PMC3334620
Over roughly 33,000 sequences, “E-score (-0.5 to 0.5)” has its median near -0.032; the highest 2% begin near 0.36. The list shows a part of the results.

Molecular target: T1, Sko1 (UniProt Q02100)
T1 sequence: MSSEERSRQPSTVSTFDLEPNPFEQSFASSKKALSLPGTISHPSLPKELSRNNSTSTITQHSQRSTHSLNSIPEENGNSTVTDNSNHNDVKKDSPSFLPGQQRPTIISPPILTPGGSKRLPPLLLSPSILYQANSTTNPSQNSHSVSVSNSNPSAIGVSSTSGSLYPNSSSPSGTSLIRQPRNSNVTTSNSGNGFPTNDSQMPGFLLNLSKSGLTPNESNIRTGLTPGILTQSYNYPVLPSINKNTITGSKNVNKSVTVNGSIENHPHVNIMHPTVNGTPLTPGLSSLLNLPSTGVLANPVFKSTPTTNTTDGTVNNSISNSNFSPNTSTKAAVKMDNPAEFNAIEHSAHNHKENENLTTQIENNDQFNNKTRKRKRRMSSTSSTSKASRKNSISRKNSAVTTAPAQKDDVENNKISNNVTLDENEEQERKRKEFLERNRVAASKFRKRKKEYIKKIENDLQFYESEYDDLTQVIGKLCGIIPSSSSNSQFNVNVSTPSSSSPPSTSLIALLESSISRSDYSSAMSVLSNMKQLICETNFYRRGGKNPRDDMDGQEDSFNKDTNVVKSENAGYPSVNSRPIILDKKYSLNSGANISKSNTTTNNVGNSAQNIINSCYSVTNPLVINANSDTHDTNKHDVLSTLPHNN
Assay: PBM E-score (8-mer binding enrichment) (E-score (-0.5 to 0.5)); higher = stronger / more preferred TF binding; most listed sequences are background and not binding sites
Settings: protein concentration: 200 nM; construct: GST-full length
Summary of the method: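 Each ungapped eight-base word and its reverse complement, pooled, received an E-score from the Universal PBM Analysis Suite. Underlying scans, normalised with masliner, recorded fluorescent anti-GST bound to GST-tagged yeast transcription factors. These were applied at about 100-200 nM to universal all-10-mer Agilent arrays double-stranded by primer extension.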

In order of falling “PBM E-score” value:
1. TACGTAAA  0.484
2. CACACGTA  0.45
3. ACTCGTCA  0.404
4. ACGTGCAT  0.396
5. AAAATACG  0.343
6. CACGCGTC  0.291
7. AAATCGTA  0.285
8. CAATCGTA  0.285
9. AAATATGT  0.276
10. CAGCGTCA  0.269
11. CATTCACG  0.215
12. AAAATACT  0.213
13. ATATAATA  0.207
14. CACCCACG  0.178
15. CTAATAAA  0.177
16. CGAGTAAC  0.172
17. ACCAGTTA  0.158
18. TGGTCAAA  0.154
19. GTGTATCA  0.153
20. CTTTTTAC  0.152
21. AACCATTG  0.15
22. CTTTTGTA  0.139
23. GAGTGTGA  0.136
24. CATCGTAC  0.136
25. GAAATGAA  0.126
26. ATGAGTCA  0.125
27. CGCGACGA  0.125
28. CGTGGAAG  0.124
29. AATTATGG  0.122
30. GTGTGTGA  0.116
31. CAGTACTG  0.115
32. ATCACTTC  0.111
33. ATCCCTAC  0.106
34. CGCCATGC  0.104
35. CATTGCGA  0.101
36. CAATTTCA  0.0986
37. ATGGCAAC  0.0982
38. AGGCGAAC  0.0973
39. GTGTTGGA  0.0951
40. GAATGGTA  0.0925
41. ATGGTAAA  0.0877
42. AGTTCTTG  0.081
43. AAGATCGT  0.0795
44. TTCGACAA  0.0777
45. CAGAATGA  0.0723
46. AATCTGAT  0.0711
47. ATCCAAAG  0.0661
48. ACAACAAG  0.0637
49. CCCCAACG  0.0631
50. GATGTTGC  0.0584
51. GTCCTAAC  0.055
52. ACTACCTA  0.0522
53. ACGACGGG  0.0518
54. GTCGACAC  0.0499
55. TGCACAAA  0.0452
56. GTGTAGAA  0.0421
57. CAATAGAC  0.0384
58. ATGAATTG  0.0345
59. CATTGAGA  0.034
60. TACTGGAA  0.0304
61. GTTCTTCA  0.0119
62. AGCAAACA  0.00884
63. CCGTTGCG  0.00759
64. CCTAGTAC  0.00576
65. AATTACCC  0.0055
66. CGCCTTAA  0.00536
67. ATATTCAG  0.00522
68. CGACGAAG  0.00357
69. ATATGGCA  0.0018
70. AACTTTGT  0.00157
71. CCAAAGCA  -0.00167
72. GTGGTGAA  -0.00249
73. CACTGCAC  -0.016
74. ATTAACCG  -0.0199
75. AGAGTAGA  -0.0272
76. AAGTTAGG  -0.0273
77. ACAATCGC  -0.0302
78. CTCTTTTA  -0.0323
79. GGGTAACA  -0.0351
80. CAGTAACC  -0.0392
81. CCGTTTAA  -0.0451
82. CGCCGTGA  -0.0474
83. AACTAAGG  -0.0496
84. CACCTTAA  -0.0499
85. GACGCCCA  -0.0504
86. GTCAGCGA  -0.0508
87. GGTTATCA  -0.052
88. AGGCCAAT  -0.0526
89. CGTTCAAA  -0.0617
90. ATCCTTGC  -0.0696
91. AGCCATAC  -0.073
92. GGCTTTGA  -0.0738
93. CTATAGAC  -0.0761
94. GCACCCCA  -0.0797
95. AGGTCTAA  -0.0802
96. GGGTTAAC  -0.0829
97. AGCTAACA  -0.0839
98. TGCAACCA  -0.0883
99. ACTTCCCC  -0.0883
100. CCTCTTAC  -0.0892
101. GGACCTAA  -0.0906
102. ACAGACTC  -0.0949
103. TGTGAACA  -0.0972
104. AAAGATCC  -0.0977
105. AATCCTCG  -0.0997
106. AAAGCCGC  -0.101
107. CACACAGG  -0.101
108. CTCATGCC  -0.102
109. GCTGCGGA  -0.103
110. GGTTTGCA  -0.105
111. CGGTCTAG  -0.108
112. GACTCTAC  -0.108
113. AAGGCGTG  -0.111
114. CAAGCTAG  -0.118
115. CGGAATAA  -0.128
116. ACGGGACG  -0.129
117. AGCTTGGG  -0.13
118. GCTGCCAA  -0.131
119. ATGGATGC  -0.134
120. TGGCTCAA  -0.135
121. CAGCACAC  -0.136
122. AGGTTCCG  -0.138
123. CGGGTCAA  -0.142
124. ACTCCATC  -0.145
125. CCCACCAG  -0.148
126. GGTGTGGA  -0.149
127. AGTTCCTG  -0.15
128. AGAGGTCA  -0.151
129. CCAGGCAA  -0.152
130. ATCCCTAA  -0.165
131. CACGGGGC  -0.169
132. AGCGAGAC  -0.175
133. GGAGGGCA  -0.175
134. GCAGCGGC  -0.178
135. CGCCGCCG  -0.179
136. ACCACGGT  -0.183
137. CCAGCCCC  -0.186
138. CCCTAGCA  -0.189
139. GAGAGGGA  -0.189
140. ATTCCCCA  -0.19
141. ACATCCCA  -0.191
142. CGCTGTCA  -0.194
143. CACAGCGC  -0.197
144. ACATGCCC  -0.199
145. AGTGTCTC  -0.206
146. ACTAGGGC  -0.211
147. GAGAAGCA  -0.214
148. CCAGAACC  -0.222
149. CCGTTAGG  -0.227
150. CAAGTCCG  -0.236
151. CAGGGTCG  -0.241
152. AGGTCGCC  -0.245
153. CCCGGATC  -0.251
154. CCCTTAAC  -0.252
155. CCAGGTCA  -0.26
156. AGACCCTC  -0.264
157. AGTGTCAG  -0.267
158. CCTGGACA  -0.271
159. CTTAGGGA  -0.272
160. GGACCCTA  -0.273
161. CACGGGCA  -0.278
162. CTAGCACA  -0.291
163. GCTCTGCC  -0.293
164. CTGCACCA  -0.305
165. CGGCCAAC  -0.315
166. GGGGGACA  -0.317
167. AATCAGGG  -0.33
168. CCCGTAGA  -0.331
169. CGACCCTC  -0.344
170. CTTCTGGC  -0.363
171. GGATTCCC  -0.405
172. AAGGGGGG  -0.5
